Laboratory results reported in PMC9911399, “Two distinct binding modes provide the RNA-binding protein RbFox with extraordinary sequence specificity”.
Substitutions are numbered along the chain they refer to; changes in the protein carry UniProt numbers. This is one part of the list.

B1: UGCAGUU (DNA:RNA)
RNA: GGGAGACCGGAAUUCAGAUUGUCCUGCAGUUUUAAAUCCCGUCGUAGCCACCA
DNA 1: CAATCTGAATTCCGGTCTCCC
DNA 2: TGGTGGCTACGACGGGATT
B2: UUCAUUA (DNA:RNA)
RNA: B1 RNA with G26U, G29U, U31A
DNA 1: CAATCTGAATTCCGGTCTCCC
DNA 2: TGGTGGCTACGACGGGATT
B3: UCGGCAU (DNA:RNA)
RNA: B1 RNA with G26C, C27G, A28G, G29C, U30A
DNA 1: CAATCTGAATTCCGGTCTCCC
DNA 2: TGGTGGCTACGACGGGATT
B4: CGGACGC (DNA:RNA)
RNA: B1 RNA with U25C, C27G, G29C, U30G, U31C
DNA 1: CAATCTGAATTCCGGTCTCCC
DNA 2: TGGTGGCTACGACGGGATT
B5: AUCGCCG (DNA:RNA)
RNA: B1 RNA with U25A, G26U, A28G, G29C, U30C, U31G
DNA 1: CAATCTGAATTCCGGTCTCCC
DNA 2: TGGTGGCTACGACGGGATT
B6: UAACCGU (DNA:RNA)
RNA: B1 RNA with G26A, C27A, A28C, G29C, U30G
DNA 1: CAATCTGAATTCCGGTCTCCC
DNA 2: TGGTGGCTACGACGGGATT
B7: UUCCUUG (DNA:RNA)
RNA: B1 RNA with G26U, A28C, G29U, U31G
DNA 1: CAATCTGAATTCCGGTCTCCC
DNA 2: TGGTGGCTACGACGGGATT
B8: UAACGCU (DNA:RNA)
RNA: B1 RNA with G26A, C27A, A28C, U30C
DNA 1: CAATCTGAATTCCGGTCTCCC
DNA 2: TGGTGGCTACGACGGGATT
B9: CGGCCAU (DNA:RNA)
RNA: B1 RNA with U25C, C27G, A28C, G29C, U30A
DNA 1: CAATCTGAATTCCGGTCTCCC
DNA 2: TGGTGGCTACGACGGGATT
B10: CUUAUAG (DNA:RNA)
RNA: B1 RNA with U25C, G26U, C27U, G29U, U30A, U31G
DNA 1: CAATCTGAATTCCGGTCTCCC
DNA 2: TGGTGGCTACGACGGGATT
B11: GCCGUCC (DNA:RNA)
RNA: B1 RNA with U25G, G26C, A28G, G29U, U30C, U31C
DNA 1: CAATCTGAATTCCGGTCTCCC
DNA 2: TGGTGGCTACGACGGGATT
B12: UUAGCAC (DNA:RNA)
RNA: B1 RNA with G26U, C27A, A28G, G29C, U30A, U31C
DNA 1: CAATCTGAATTCCGGTCTCCC
DNA 2: TGGTGGCTACGACGGGATT
B13: ACUUUGC (DNA:RNA)
RNA: GGGAGACCGGAAUUCAGAUUGUCCACUUUGCUUAAAUCCCGUCGUAGCCACCA
DNA 1: CAATCTGAATTCCGGTCTCCC
DNA 2: TGGTGGCTACGACGGGATT
B14: AAUCAUU (DNA:RNA)
RNA: B13 RNA with C26A, U28C, U29A, G30U, C31U
DNA 1: CAATCTGAATTCCGGTCTCCC
DNA 2: TGGTGGCTACGACGGGATT
B15: CGAACAU (DNA:RNA)
RNA: B1 RNA with U25C, C27A, G29C, U30A
DNA 1: CAATCTGAATTCCGGTCTCCC
DNA 2: TGGTGGCTACGACGGGATT
B16: UUCCAGU (DNA:RNA)
RNA: B1 RNA with G26U, A28C, G29A, U30G
DNA 1: CAATCTGAATTCCGGTCTCCC
DNA 2: TGGTGGCTACGACGGGATT
B17: AGGGUAG (DNA:RNA)
RNA: B13 RNA with C26G, U27G, U28G, G30A, C31G
DNA 1: CAATCTGAATTCCGGTCTCCC
DNA 2: TGGTGGCTACGACGGGATT
B18: UGUAUUU (DNA:RNA)
RNA: B1 RNA with C27U, G29U
DNA 1: CAATCTGAATTCCGGTCTCCC
DNA 2: TGGTGGCTACGACGGGATT
B19: ACUCCCC (DNA:RNA)
RNA: B13 RNA with U28C, U29C, G30C
DNA 1: CAATCTGAATTCCGGTCTCCC
DNA 2: TGGTGGCTACGACGGGATT
B20: ACUCUCC (DNA:RNA)
RNA: B13 RNA with U28C, G30C
DNA 1: CAATCTGAATTCCGGTCTCCC
DNA 2: TGGTGGCTACGACGGGATT
B21: CCCCCUC (DNA:RNA)
RNA: B13 RNA with A25C, U27C, U28C, U29C, G30U
DNA 1: CAATCTGAATTCCGGTCTCCC
DNA 2: TGGTGGCTACGACGGGATT
B22: AUGUUAC (DNA:RNA)
RNA: B13 RNA with C26U, U27G, G30A
DNA 1: CAATCTGAATTCCGGTCTCCC
DNA 2: TGGTGGCTACGACGGGATT
B23: AAACGGG (DNA:RNA)
RNA: B13 RNA with C26A, U27A, U28C, U29G, C31G
DNA 1: CAATCTGAATTCCGGTCTCCC
DNA 2: TGGTGGCTACGACGGGATT
B24: UCCUGUU (DNA:RNA)
RNA: B1 RNA with G26C, A28U
DNA 1: CAATCTGAATTCCGGTCTCCC
DNA 2: TGGTGGCTACGACGGGATT
B25: AAACGUG (DNA:RNA)
RNA: B1 RNA with U25A, G26A, C27A, A28C, U31G
DNA 1: CAATCTGAATTCCGGTCTCCC
DNA 2: TGGTGGCTACGACGGGATT
B26: UAUGGCG (DNA:RNA)
RNA: B1 RNA with G26A, C27U, A28G, U30C, U31G
DNA 1: CAATCTGAATTCCGGTCTCCC
DNA 2: TGGTGGCTACGACGGGATT
B27: AAAAAGU (DNA:RNA)
RNA: B13 RNA with C26A, U27A, U28A, U29A, C31U
DNA 1: CAATCTGAATTCCGGTCTCCC
DNA 2: TGGTGGCTACGACGGGATT
B28: UUAAAAU (DNA:RNA)
RNA: B1 RNA with G26U, C27A, G29A, U30A
DNA 1: CAATCTGAATTCCGGTCTCCC
DNA 2: TGGTGGCTACGACGGGATT
B29: AAGGUGC (DNA:RNA)
RNA: B13 RNA with C26A, U27G, U28G
DNA 1: CAATCTGAATTCCGGTCTCCC
DNA 2: TGGTGGCTACGACGGGATT
B30: UUCGGGG (DNA:RNA)
RNA: B1 RNA with G26U, A28G, U30G, U31G
DNA 1: CAATCTGAATTCCGGTCTCCC
DNA 2: TGGTGGCTACGACGGGATT
B31: UGAGGCC (DNA:RNA)
RNA: B1 RNA with C27A, A28G, U30C, U31C
DNA 1: CAATCTGAATTCCGGTCTCCC
DNA 2: TGGTGGCTACGACGGGATT

Each binder was assayed against T1, RBFOX1 RRM RbFoxmut (Fox-RRM*) (Homo sapiens, UniProt Q9NWB1 109-208, R118D;E147R;N151S;E152T) (assay: EMSA; HiTS-Eq, 1 nM pool, 10 min; buffer printed only for the single-RNA assays: 10 mM Tris pH 7.5, 150 mM NaCl, 3.4 mM EDTA, 0.001% NP-40, 30 C). Conditions: tags: His6 N-terminal (pET28a); label: 5' 32P.
T1 sequence: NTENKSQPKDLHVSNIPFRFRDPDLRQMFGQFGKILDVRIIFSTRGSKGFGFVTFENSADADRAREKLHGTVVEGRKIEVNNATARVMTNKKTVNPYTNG
How it was run: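 Purified RbFox RRM, wild type or mutant, was incubated for 10 min in 50 µL with 1 nM of a 5′-radiolabelled RNA pool carrying 7 randomized nucleotides, whose flanks were annealed to DNA oligonucleotides, over a series of increasing protein concentrations. Unbound RNA was resolved on 8% native PAGE, cut out, reverse-transcribed, barcoded by PCR and sequenced on an Illumina HiSeq 2500. Relative association constants were derived from changes in read counts for each RNA species versus the control reaction and normalised to the cognate motif.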
In the case of B1, the binding signal is reported as 0.107 KA relative to UGCAUGU. For B2, the binding signal was 0.157 KA relative to UGCAUGU. For B3, the binding signal was 0.0889 KA relative to UGCAUGU. In the case of B4, the binding signal is reported as 0.0698 KA relative to UGCAUGU. In the case of B5, the binding signal is reported as 0.108 KA relative to UGCAUGU. In the case of B6, the binding signal is reported as 0.0757 KA relative to UGCAUGU. For B7, the binding signal was 0.111 KA relative to UGCAUGU. In the case of B8, the binding signal is reported as 0.057 KA relative to UGCAUGU. For B9, the binding signal was 0.0673 KA relative to UGCAUGU. With B10 the binding signal was 0.191 KA relative to UGCAUGU. With B11 the binding signal was 0.0566 KA relative to UGCAUGU. B12 was tested, and the binding signal was 0.0935 KA relative to UGCAUGU. B13 was tested, and the binding signal was 0.12 KA relative to UGCAUGU. In the case of B14, the binding signal is reported as 0.0671 KA relative to UGCAUGU. In the case of B15, the binding signal is reported as 0.0626 KA relative to UGCAUGU. B16 was tested, and the binding signal was 0.084 KA relative to UGCAUGU. In the case of B17, the binding signal is reported as 0.167 KA relative to UGCAUGU. B18 was tested, and the binding signal was 0.106 KA relative to UGCAUGU. For B19, the binding signal was 0.0489 KA relative to UGCAUGU. For B20, the binding signal was 0.0423 KA relative to UGCAUGU. B21 was tested, and the binding signal was 0.0703 KA relative to UGCAUGU. With B22 the binding signal was 0.161 KA relative to UGCAUGU. For B23, the binding signal was 0.0603 KA relative to UGCAUGU. In the case of B24, the binding signal is reported as 0.087 KA relative to UGCAUGU. With B25 the binding signal was 0.138 KA relative to UGCAUGU. For B26, the binding signal was 0.116 KA relative to UGCAUGU. In the case of B27, the binding signal is reported as 0.115 KA relative to UGCAUGU. B28 was tested, and the binding signal was 0.0612 KA relative to UGCAUGU. B29 was tested, and the binding signal was 0.103 KA relative to UGCAUGU. B30 was tested, and the binding signal was 0.0513 KA relative to UGCAUGU. With B31 the binding signal was 0.143 KA relative to UGCAUGU.
